# Assay results: PubChem BioAssay AID624296 (National Center for Advancing Translational Sciences (NCATS), 2012)
# Hit rate of the full screen: of about 350,000 compounds, about 9,900 (2.8%) were called active. This list was built around the results that the source calls inconclusive (neither active nor inactive); the mix of calls is not that of the screen. Calls follow the shape of the dose curve; as a rule, active = well fitted activation curve with a large enough effect; inconclusive = small, poorly fitted or top-dose-only effect; inactive = no such curve, though single readings can be large or run the other way. Potencies of inconclusive entries are left out as doubtful fits.
# Assay: A quantitative high throughput screen for small molecules that induce DNA re-replication in MCF 10a normal breast cells. Also: nearly all actives have a fitted effect of over 50% in size. As to activity, positive = re-replication: % of control where 0% means no effect.
# Details: MCF 10A DNA re-replication, Hoechst nuclear intensity, 48 h; activity, positive = re-replication: at 46.1 µM (top of the series)
# Potency is read from the fitted curve at half-maximal effect; tags tell the direction and shape of the fitted curve.
SMILES,Potency,"activity, positive = re-replication"
O=C(NCCc1c[nH]c2ccccc12)c1cccnc1,"inconclusive [activator, full curve, poor fit]",
COC(=O)c1ccc(NC(=O)CSC2=NC(=O)C(c3ccccc3)C(=O)N2)cc1 (stereo unspecified),,inactive: -2.77%
Cc1nc(NS(=O)(=O)c2ccc(Cl)s2)c2c3c(sc2n1)CCCC3,"inconclusive [activator, single point]",
Cc1cc(C)c(C#N)c(SCc2ccccc2F)n1,,inactive: 9.05%
CC1C/C(=N/N=C2/NC(=O)CS2)CC(C)(C)C1 (stereo unspecified),,inactive: 0.193%
O=C(CCl)Nc1ccccc1Sc1ccc(Cl)cc1,active: 14.6 µM,
CCCCn1c(SCC(=O)Nc2cc(C(F)(F)F)cc(C(F)(F)F)c2)nnc1C(CC)N(C)C (stereo unspecified),"inconclusive [activator, single point]",
O=C(CSc1c2c(nc3ccc(Cl)cc13)CCCC2)NCCCN1CCOCC1,"inconclusive [activator, single point]",
O=C(NNc1cc(Br)c(O)c(Br)c1)c1ccccc1,"inconclusive [activator, single point]",
O=C1C(=O)N(CCN2CCOCC2)C(c2cccc(Cl)c2)/C1=C(/O)c1ccc2c(c1)OCO2 (stereo unspecified),,inconclusive: -41.3% [activator]
Cc1noc(C)c1CSCC(=O)Nc1cc(Cl)ccc1N1CCCCC1,"inconclusive [activator, single point]",
COc1cccc(NC(=O)c2ccc(NC(=O)C3CC(=O)OC34CCCCC4)cc2)c1 (stereo unspecified),,inactive: -0.916%
CCN1CCN(c2c(C=O)c(Cl)nc3ccc(OC)cc23)CC1,,inactive: 14.3%
Cn1c(=O)c2c(nc(SCC(=O)N3c4ccccc4CCc4ccccc43)n2C)n(C)c1=O,,inactive: -5.71%
CC(C)CC[n+]1ccn(-c2nc3ccccc3nc2[N-]S(=O)(=O)c2ccccc2)c1,,inactive: -3.83%
Cc1nc2cc(-c3ccsc3-n3c(C)ccc3C)[nH]n2c(=O)c1Cl,"inconclusive [activator, single point]",
CCOc1ccc(C(=O)CCN2CCCCCC2)cc1,active: 3.26 µM,
Cc1c(C)c2ccc(OC(C)C(=O)N3C[C@H]4C[C@@H](C3)c3cccc(=O)n3C4)c(C)c2oc1=O (stereo partly specified),"inconclusive [activator, full curve, poor fit]",
O=C(/C=C/c1cccc(O)c1)c1ccc(N2CCOCC2)cc1,,inactive: 6.74%
COc1ccc2c(CC(=O)Nc3nnc(C4CC4)s3)coc2c1,"inconclusive [activator, single point]",
O=C(c1cc(-c2ccc(Br)cc2)nc2ccccc12)N1CCN(c2ccccc2O)CC1,"inconclusive [activator, partial curve, poor fit]",
O=C(CN1C(=O)COc2ccccc21)Nc1ccc(F)cc1,active: 20.6 µM,
COc1ccc(-c2nc(-c3ccc4c(c3)OCO4)[nH]c2-c2ccc(OC)cc2)cc1,"inconclusive [activator, full curve]",

SMILES,Potency,"activity, positive = re-replication"
COC(=O)C/C(O)=C(/N=Nc1cccc(C(F)(F)F)c1)C(=O)OC,active: 5.8 µM,
COc1ccccc1C1CCN(Cc2ccc3ccccc3c2)CC1,"inconclusive [activator, single point]",
CCOc1cc(Br)c(CC(=O)NC2CCCCCC2)cc1OCC,"inconclusive [activator, partial curve, poor fit]",
O=S(=O)(NCC(c1ccc2c(c1)OCO2)N1CCOCC1)c1ccc(Cl)cc1 (stereo unspecified),"inconclusive [activator, partial curve, poor fit]",
CC(C)(C)NC(=O)C[C@H]1C[C@H](C(=O)N2CCOCC2)[C@@]2(CCC3CCCC3)c3[nH]c4ccc(Cl)cc4c3CCN2C1=O,"inconclusive [activator, single point]",
CN(C)C(=O)N1CCN(C(=O)c2ccco2)CC1,"inconclusive [activator, partial curve, poor fit]",
CCOC(=O)Cc1nn(Cc2ccccc2)c(=O)c2ccccc12,"inconclusive [activator, partial curve, poor fit]",
CCc1ccccc1NNC(=O)c1snnc1C,"inconclusive [activator, single point]",
Cc1cc(O)c(C(C)C)cc1N=C1CSC(=O)N1,"inconclusive [activator, single point]",
CNC(=S)N/N=C/c1ccc(-c2ccc(Cl)c([N+](=O)[O-])c2)o1,"inconclusive [activator, single point]",
COC(=O)c1ccc(C(C(=O)NCc2ccccc2)N(Cc2ccco2)C(=O)c2cnccn2)cc1 (stereo unspecified),"inconclusive [activator, full curve, poor fit]",
Cc1ccc(SCc2ccc(C(=O)NCc3ccncc3)cc2)cc1,,inactive: -7.64%
COc1ccc(OC)c(-c2csc(NC(=O)Cc3ccccc3)n2)c1,"inconclusive [activator, single point]",
COC(=O)CSc1nc2c(c(-c3ccco3)c1C#N)CCCC2,"inconclusive [activator, partial curve, poor fit]",
O=C(Nc1nc2ccc(S(=O)(=O)N3CCCC3)cc2s1)C1CCCCC1,active: 10.3 µM,
O=S(=O)(NCc1ccc(Cl)cc1)c1cnc[nH]1,,inactive: 3.56%
O=C(c1ccc(Cl)nc1)c1cccs1,,inactive: -1.87%
COc1ccc(/C=C(\C#N)C(=O)Nc2cc(C)c(Cl)cc2OC)cc1O,"inconclusive [activator, partial curve, poor fit]",
CC1=C(C(=O)Nc2ccccc2C(F)(F)F)C(c2sccc2C)NC(=S)N1 (stereo unspecified),"inconclusive [activator, partial curve, poor fit]",
COC(=O)C1CCN(C(=O)COC(=O)c2cc(S(=O)(=O)N3CCOCC3)ccc2C)CC1,,inactive: 1.29%
COc1ccc(CC(=O)Nc2cccc(S(=O)(=O)N3CCCCCC3)c2)cc1OC,,inactive: -1.86%
Fc1ccc(Nc2c3c(nc4ccccc24)CCC3)cc1,,inactive: 0.588%
Nc1c(C(=O)Nc2ccc3c(c2)OCCO3)nnn1Cc1cccc(Br)c1,"inconclusive [activator, single point]",
